According to PMC6212790:
Some of the results follow. At the low end of the ranking the order means little.

molecular target: T1, GST-Rok-C97-191 (UniProt O34857); assay: protein binding microarray; details: Rok is a gene silencer of Bacillus subtilis; high values mean tight binding; most listed sequences are background and not binding sites; double strand, one strand shown;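 further: rank score from −0.5 (least bound) to 0.5 (best bound)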
T1 sequence: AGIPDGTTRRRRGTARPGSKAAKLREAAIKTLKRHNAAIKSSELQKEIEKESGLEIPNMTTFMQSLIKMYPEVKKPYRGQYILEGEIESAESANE

Sequence	binding signal
ACATGTAA	0.267 E-score
GACATAAA	0.101 E-score
GAGTCGGC	-0.0688 E-score
CTGCCGCA	-0.198 E-score
CCTGCGTC	-0.298 E-score
AGCGGACT	-0.116 E-score
GTCTGGGA	-0.196 E-score
CTAGTGGA	-0.0698 E-score
CGGGTCTA	-0.111 E-score
CCAGAAAA	-0.0785 E-score
GAAAGAGC	-0.143 E-score
GAAAGCTA	0.153 E-score
GGATCTAA	-0.102 E-score
CTTCAGCC	-0.152 E-score
CCATAAAA	0.0544 E-score
GCGAGAAA	0.0902 E-score
AGTGCCGG	-0.0114 E-score
ATTTATGC	0.0496 E-score
ACAGGGGC	-0.169 E-score
CTAGCCTA	-0.0726 E-score
AACGCTAG	0.0384 E-score
ATCGGCAG	-0.247 E-score
CATACGCC	-0.0104 E-score
CATGAATA	0.157 E-score
TCCCGCGA	-0.171 E-score

Sequence	binding signal
CCCTACGC	-0.276 E-score
AATAATAT	0.321 E-score
GGTCAGGA	-0.126 E-score
ACAGACGC	-0.0889 E-score
CATGTAGA	0.327 E-score
ACGGAGTG	-0.196 E-score
ACGTCGCC	0.108 E-score
GAGGAGAA	-0.0778 E-score
GGCTCCCC	-0.463 E-score
CATGGCGC	-0.201 E-score
GCATCTTA	0.0301 E-score
ATGCAACG	0.0852 E-score
AAAATGGG	0.115 E-score
GCCCTTAA	0.00698 E-score
GTGTGAAC	-0.0488 E-score
GGCAGTTA	0.0872 E-score
ATGACTGG	-0.156 E-score
CAAGGGCA	-0.232 E-score
CCGTCGCG	-0.201 E-score
TAAGGTAA	-0.00793 E-score
GTGAGTTA	0.202 E-score
TATAAGCA	0.215 E-score
ATAGAGAA	0.217 E-score
AATTATCT	0.285 E-score
CGGGGCTC	-0.279 E-score

Sequence	binding signal
TGACTCAA	-0.0153 E-score
CTTAAAAG	-0.15 E-score
AGTGAAAT	0.0143 E-score
ATAGAGTA	0.203 E-score
ATCGTTTC	0.0652 E-score
CTCTGCAC	-0.254 E-score
GTTAACAA	0.271 E-score
TGCCACAA	-0.0432 E-score
AAATAGAA	0.36 E-score
CCGGTCGC	-0.341 E-score
CCAAGCAG	-0.155 E-score
CTATTATC	0.211 E-score
CCAACAGG	-0.251 E-score
AGCGGCCC	-0.369 E-score
CAAAACTG	-0.244 E-score
ACTGCATG	-0.00855 E-score
CCCGAAGA	0.0539 E-score
CTGTCCGC	-0.184 E-score
AGCCAAAG	-0.388 E-score
AAGAGATC	-0.203 E-score
GAAGAAGA	-0.122 E-score
CCACCATA	0.0786 E-score
ACCGGGGA	-0.0231 E-score
CACGCTGG	-0.173 E-score
GTCCCTCA	-0.284 E-score

Sequence	binding signal
CCGACTAA	0.114 E-score
GGCGGTCA	-0.194 E-score
GTATCTCA	0.135 E-score
TCCTCAGA	-0.0154 E-score
CACATATG	0.197 E-score
AGGCTGTA	-0.0162 E-score
ACCGTTGA	0.0449 E-score
ACATGGTG	-0.0396 E-score
GGATGGTA	0.225 E-score
CGTGGGGA	-0.266 E-score
CAGCAACA	0.00686 E-score
AGCGGACA	-0.0311 E-score
AACGACCC	-0.0945 E-score
ACTGAAGG	-0.0541 E-score
ACCACTCG	-0.181 E-score
GACTAGTA	0.368 E-score
AAGCACTT	0.0124 E-score
CAGCTCAC	-0.08 E-score
GCCACACA	-0.0963 E-score
CTTGTCGA	-0.125 E-score
GCTCATAA	-0.0493 E-score
TAAACTAA	0.234 E-score
AATACCAA	0.0977 E-score
ATCGTATG	0.0291 E-score
GTAATACA	0.258 E-score

Sequence	binding signal
GCTGACCC	-0.326 E-score
ACTTTACG	0.0222 E-score
AGCAATCA	0.142 E-score
AGTTTTCA	0.131 E-score
GAACTCGA	-0.059 E-score
CGATGGCC	-0.0531 E-score
ATCCCTTC	-0.096 E-score
TAGTGAAA	0.189 E-score
AATAGACT	0.0601 E-score
CGGTGCTC	-0.157 E-score
ACTTGCAA	0.0387 E-score
ATCGATAC	0.0929 E-score
GAACATGA	0.0153 E-score
CTAAGGTC	-0.121 E-score
CATTTTCG	0.0882 E-score
CTGGAGCA	-0.0114 E-score
GTTGCACA	-0.11 E-score
AACCACTG	-0.127 E-score
ATGGGGCA	-0.192 E-score
ACCTATTA	0.282 E-score
AGGGTCAT	-0.0796 E-score
ATTGCTGA	0.0398 E-score
CGTTGGCA	-0.0939 E-score
CAGGCCGC	-0.274 E-score
GAGGTTAC	0.0652 E-score

Sequence	binding signal
TCGCTTCA	-0.0833 E-score
CCAACCAG	-0.224 E-score
AGACTGAC	-0.0742 E-score
TAACGATA	0.13 E-score
GAAGTCTA	-0.147 E-score
AGACTGGC	-0.0765 E-score
CTTAGGGC	-0.0993 E-score
AGTGTGCG	-0.136 E-score
CAGAGTGC	-0.222 E-score
GACGGGGC	-0.21 E-score
AATTCCAC	0.117 E-score
CCTCGTGC	-0.412 E-score
ATCTCTAG	0.109 E-score
CCATTTAA	-0.0111 E-score
GAACTGCA	-0.00818 E-score
ACAAGTGC	0.0669 E-score
AGTATCAC	0.0886 E-score
AATGGAAC	-0.0198 E-score
AACGGTAC	0.226 E-score
GGGTGTAC	-0.167 E-score
CGCCTAGA	0.031 E-score
ATCAAAAG	-0.0171 E-score
ACTTCACG	-0.145 E-score
AAGCCGCC	-0.39 E-score
CCAGTACA	0.0219 E-score

Sequence	binding signal
CTGGTGGC	-0.155 E-score
CGCAGCAC	-0.17 E-score
AGCCAGCA	-0.117 E-score
GTAGCGGA	-0.164 E-score
TACCGATA	0.339 E-score
ATGTATTA	0.301 E-score
CCTTCGAG	-0.263 E-score
CCGTATAC	0.14 E-score
ACGGCAAA	0.123 E-score
AATTCGCG	0.135 E-score
AGCTTACT	0.00348 E-score
ACGAGACT	-0.0621 E-score
ATGGTGTC	-0.159 E-score
GAACTGTA	0.161 E-score
AAGTATTA	0.349 E-score
CTATGTAC	0.17 E-score
GCTTTGCA	-0.23 E-score
ATTCGAAA	0.137 E-score
CCTGGTAA	0.0601 E-score
CACGTTAG	-0.097 E-score
CCCCTAGA	-0.225 E-score
CCCTTGCA	-0.225 E-score
